The whole screen tested about 2,100 compounds, of which about 1,100 (52%) were called active. The set was probably picked from earlier hits. This list was built around the results that the source calls inconclusive (neither active nor inactive); the mix of calls is not that of the screen. The call rests on the fitted dose curve; in most records, active means well fitted inhibition curve with a large enough effect; inconclusive means small, poorly fitted or top-dose-only effect; inactive means no such curve, though single readings can be large or run the other way. No potency is given beside an inconclusive call; the fits are too rough.
What follows are compounds tested against DNA dC->dU-editing enzyme APOBEC-3F (Homo sapiens) (UniProt Q8IUX4) (assay: qHTS for inhibitors of Vif-A3F interactions: Cherry picks counterscreen). Settings: HeLa A3F-eYFP/Vif cells, eYFP fluorescence, 24 h; series mostly up to 46.1 µM.
UniProt Q8IUX4, sequence (Q8IUX4 whole entry, looked up): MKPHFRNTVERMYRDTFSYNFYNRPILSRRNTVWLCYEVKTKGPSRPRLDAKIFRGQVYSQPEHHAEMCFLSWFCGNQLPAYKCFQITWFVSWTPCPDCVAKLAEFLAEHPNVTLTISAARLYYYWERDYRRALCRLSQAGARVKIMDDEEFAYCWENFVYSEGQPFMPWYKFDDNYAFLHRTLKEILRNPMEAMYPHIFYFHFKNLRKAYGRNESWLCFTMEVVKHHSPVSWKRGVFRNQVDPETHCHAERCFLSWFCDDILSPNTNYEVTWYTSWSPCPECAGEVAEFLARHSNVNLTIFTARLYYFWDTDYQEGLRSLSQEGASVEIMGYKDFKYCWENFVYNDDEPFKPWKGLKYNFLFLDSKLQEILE
How it was run: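 Rescue of Vif-driven A3F-eYFP degradation read as cellular eYFP fluorescence after 24 h compound exposure (several concentrations) in stable HeLa cells; MG132 (2 mM stock) as positive control.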
For `O=c1[nH]ncc2c3ccccc3n(Cc3cccc(Cl)c3)c12`, the Potency was inconclusive [inhibitor, single point].
For `O=C(/C=C/c1ccco1)NC(=S)Nc1ccc(N2CCCC2)cc1`, the Potency was inconclusive [inhibitor, single point].
In the case of `Cc1cc(C)c(C(=O)N(CCN(C)C)CC2CCCN(Cc3ccccc3F)C2)o1` (stereo not given), the Potency is reported as “inactive”.
With `COc1ccc(-c2cc(-c3cccs3)nc3sc(C#N)c(N)c23)cc1` the Potency was “inactive”.
In the case of `CN(C)C(=O)c1cccc(-c2cnc3c(NC=O)cc(-c4ccccc4F)cn23)c1`, the Potency is reported as “inactive”.
In the case of `CCOC(=O)/C(C#N)=N\Nc1cc(Cl)ccc1OC`, the Potency is reported as inconclusive [inhibitor, single point].
In the case of `N#C/C(=C/c1ccc(N2CCCCCC2)o1)c1cccc(F)c1`, the Potency is reported as inconclusive [inhibitor, full curve].
In the case of `CS(=O)(=O)Nc1ccc(C2=NN(S(C)(=O)=O)C(c3ccc4c(c3)OCO4)C2)cc1` (stereo not given), the Potency is reported as inconclusive [inhibitor, single point].
For `COc1ccc(NC(=S)Nc2ncccc2C)c(OC)c1`, the Potency was “inactive”.
In the case of `COc1cccc(NC(=O)c2sc3nc(C)c(C(=O)Nc4ccc(C)cc4C)c(-c4ccco4)c3c2N)c1`, the Potency is reported as “inactive”.
`CC(OC(=O)/C(C#N)=C/c1ccc(N(C)C)cc1)C(=O)N(C)Cc1ccccc1` (stereo not given) was tested, and the Potency was inconclusive [inhibitor, single point].
`Cc1cc(C)cc(NC(=S)NC(=O)C2CC2)c1` was tested, and the Potency was “inactive”.
With `COc1ccc(S(=O)(=O)Nc2cccc3ccccc23)cc1` the Potency was active: 10.3 µM.
With `O=[N+]([O-])c1ccccc1S(=O)(=O)Nc1ccc(-c2ccc(N3CCOCC3)nn2)cc1` the Potency was “inactive”.
For `O=C(Nc1ccc(Cl)cc1)Nc1ccon1`, the Potency was inconclusive [inhibitor, partial curve].
`CCOc1cc(Br)cc(/C=C2\SC(=Nc3ccccc3)NC2=O)c1O` was tested, and the Potency was inconclusive [inhibitor, single point].
With `Cc1c(C(=O)OC/C(O)=C(\C#N)c2nc3ccccc3[nH]2)oc2ccccc12` the Potency was inconclusive [inhibitor, single point].
With `COc1ccc(-c2cc(-c3nnc(COC(=O)c4ccncc4)o3)c3ccccc3n2)cc1OC` the Potency was “inactive”.
With `O=C(NCc1ccccc1)C(=O)NCC1COc2ccccc2O1` (stereo not given) the Potency was inconclusive [inhibitor, partial curve].
In the case of `Cc1ccc(-n2nc3c(N4CCCC(C(=O)NCc5ccccc5C)C4)nnc(C)c3c2C)cc1` (stereo not given), the Potency is reported as inconclusive [inhibitor, single point].
`COc1ccc(-c2cnc3c(NC=O)cc(-c4cc(OC)c(OC)c(OC)c4)cn23)cc1OC` was tested, and the Potency was inconclusive [inhibitor, single point].
`Cc1cccc(-n2c(N)c(-c3nc4ccccc4n3C)c3nc4ccccc4nc32)c1` was tested, and the Potency was “inactive”.
In the case of `COc1ccc(/C=N/NC(=O)c2cc(OC)c(OC)c(OC)c2)cc1CN1CCc2cc(OC)c(OC)cc2C1C` (stereo not given), the Potency is reported as inconclusive [inhibitor, single point].
For `CS(=O)(=O)Nc1cccc(C2=NN(S(C)(=O)=O)C(c3ccc4c(c3)OCO4)C2)c1` (stereo not given), the Potency was inconclusive [inhibitor, single point].
In the case of `O=S(=O)(Nc1ccc(C(O)(C(F)(F)F)C(F)(F)F)cc1)c1ccc(Cl)c2nonc12`, the Potency is reported as “inactive”.
`O=[N+]([O-])c1ccc(N/N=C\c2cccn2-c2ccccc2)nc1` was tested, and the Potency was inconclusive [inhibitor, single point].
With `N#C/C(=C\c1ccccc1[N+](=O)[O-])C(=O)NCc1ccccc1` the Potency was “inactive”.
`COc1ccc(C(=O)N2CCN(c3cccc(Cl)c3)CC2)cc1S(=O)(=O)NC1CC1` was tested, and the Potency was inconclusive [inhibitor, single point].
For `COc1ccc(-n2nnnc2S(=O)(=O)Cc2ccc(C(=O)O)cc2)cc1`, the Potency was inconclusive [inhibitor, partial curve, poor fit].
For `O=C1c2cccc3c(N4CCCCC4)ccc(c23)C(=O)N1c1ccccc1O`, the Potency was “inactive”.
In the case of `O=C(N/N=C/c1ccc2c(c1)OCO2)c1ccc2c(c1)OCCO2`, the Potency is reported as inconclusive [inhibitor, single point].
`CN1C/C(=C/c2cccnc2)C(=O)/C(=C/c2cccnc2)C1` was tested, and the Potency was inconclusive [inhibitor, single point].
With `COc1cc(/C=C2/CC/C(=C/c3ccc(O)c(OC)c3)C2=O)ccc1O` the Potency was inconclusive [inhibitor, single point].
In the case of `CCOC(=O)c1cc(-c2ccccc2C)n(CC2CC(c3ccc(OC)cc3)=NO2)n1` (stereo not given), the Potency is reported as “inactive”.
For `CCC1CC=CC2C1C(=O)N(Cc1ccccc1)C2c1ccoc1` (stereo not given), the Potency was inconclusive [inhibitor, single point].
For `N#CC1=C(N)Oc2c(sc3ccccc23)C1c1ccco1` (stereo not given), the Potency was inconclusive [inhibitor, single point].
`CC1=CC(C)(C)Nc2ccc(OC(=O)CN3C(=O)CCC3=O)cc21` was tested, and the Potency was inconclusive [inhibitor, single point].
For `CC(C)OC(=O)c1ccc(NCc2cc(O)ccc2O)cc1Cl`, the Potency was inconclusive [inhibitor, full curve].
For `Cc1cc(C)n2nc(C(=O)N/N=C/c3c4ccccc4cc4ccccc34)nc2n1`, the Potency was inconclusive [inhibitor, single point].
In the case of `N#Cc1c(NC(=O)c2ccc([N+](=O)[O-])o2)sc2c1CCC2`, the Potency is reported as inconclusive [inhibitor, partial curve].
For `Cc1ccc(S(=O)(=O)c2cc3ccccc3oc2=Nc2ccc3c(c2)OCO3)cc1`, the Potency was “inactive”.
In the case of `COc1ccccc1-c1nnc2sc(-c3cc4ccccc4o3)nn12`, the Potency is reported as active: 5.59 µM.
With `CCCCCn1c(=O)[nH]c2cc(C(=O)Nc3cc(OC)cc(OC)c3)ccc2c1=O` the Potency was inconclusive [inhibitor, single point].
For `CSc1nc(N)c(C#N)c(-c2ccccc2Cl)c1C#N`, the Potency was “inactive”.
For `O=C(N/N=C/c1ccc([N+](=O)[O-])o1)c1cc2c(ccc3ccccc32)o1`, the Potency was inconclusive [inhibitor, single point].
Further: nearly all actives have a fitted effect of over 65% in size.
Potency means the concentration at half of the fitted maximal effect; tags describe the fitted curve by direction and shape.
